Experiment [1] addresses T1, Mre11 (wild type) as Gal4 fusion for the yeast two-hybrid assay (S. cerevisiae), P32829.
T1 chain: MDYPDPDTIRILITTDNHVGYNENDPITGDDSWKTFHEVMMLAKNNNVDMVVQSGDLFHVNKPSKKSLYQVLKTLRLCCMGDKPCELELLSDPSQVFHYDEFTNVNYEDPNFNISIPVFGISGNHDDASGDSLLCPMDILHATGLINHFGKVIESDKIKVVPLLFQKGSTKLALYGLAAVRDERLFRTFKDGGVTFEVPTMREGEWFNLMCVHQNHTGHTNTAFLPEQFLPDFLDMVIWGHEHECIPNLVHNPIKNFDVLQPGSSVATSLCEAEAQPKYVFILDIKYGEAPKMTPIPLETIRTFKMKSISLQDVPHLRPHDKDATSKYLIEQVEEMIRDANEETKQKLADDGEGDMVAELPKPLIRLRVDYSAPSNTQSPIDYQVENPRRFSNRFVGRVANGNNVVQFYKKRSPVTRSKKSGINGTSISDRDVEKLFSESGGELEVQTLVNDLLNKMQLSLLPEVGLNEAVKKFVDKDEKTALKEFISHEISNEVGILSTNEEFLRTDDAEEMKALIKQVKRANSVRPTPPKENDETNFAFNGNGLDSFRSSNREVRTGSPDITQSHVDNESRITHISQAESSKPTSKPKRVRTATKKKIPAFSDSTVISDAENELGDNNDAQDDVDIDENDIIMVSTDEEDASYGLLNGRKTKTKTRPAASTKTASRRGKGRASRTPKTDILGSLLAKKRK
Nature of the experiment: two-hybrid; Gal4 DNA-binding domain (pGBD; TRP1) and Gal4 activation domain (pGAD; LEU2) fusions; growth in absence of histidine (Do-TLH) and of adenine and histidine (Do-TLAH). Conditions: remark: other sources report otherwise.

The target in experiment [2] is T2, S. cerevisiae Mre11 with a C-terminal 1xFLAG tag (Mre11 of the purified MR^EQ complex) (S. cerevisiae), P32829.
T2 chain: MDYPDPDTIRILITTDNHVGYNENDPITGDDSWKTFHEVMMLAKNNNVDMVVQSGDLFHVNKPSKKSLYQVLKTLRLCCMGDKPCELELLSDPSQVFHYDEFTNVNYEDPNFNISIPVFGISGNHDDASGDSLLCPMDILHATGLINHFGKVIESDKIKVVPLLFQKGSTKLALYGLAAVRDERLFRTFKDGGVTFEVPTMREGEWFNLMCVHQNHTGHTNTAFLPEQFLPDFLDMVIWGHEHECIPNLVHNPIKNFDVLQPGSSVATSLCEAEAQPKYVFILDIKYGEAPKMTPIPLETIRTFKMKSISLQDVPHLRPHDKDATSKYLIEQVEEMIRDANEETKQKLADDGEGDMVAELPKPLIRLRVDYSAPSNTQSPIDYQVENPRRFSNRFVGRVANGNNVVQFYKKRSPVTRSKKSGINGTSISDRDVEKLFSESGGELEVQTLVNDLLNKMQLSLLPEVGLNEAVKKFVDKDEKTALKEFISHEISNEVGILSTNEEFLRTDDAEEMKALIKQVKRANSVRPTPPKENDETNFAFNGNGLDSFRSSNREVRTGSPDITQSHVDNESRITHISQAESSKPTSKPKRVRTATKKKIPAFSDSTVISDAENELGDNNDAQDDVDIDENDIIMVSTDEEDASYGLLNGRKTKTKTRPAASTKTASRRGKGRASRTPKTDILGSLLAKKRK
Nature of the experiment: cryo-EM structure; purified MR^EQ incubated with a 83-mer dsDNA in the presence of ATP, MgCl2 and MnCl2; 3.2 Å; both purified. As to conditions: remark: other sources report otherwise.

No constants are given. Whether binding was seen depends on the method and setting. Some entries that bind do so weakly or less than the wild type. Where a sequence is shown, tags or fusion partners need not be part of it.

B1: Mre11 (wild type) as Gal4 fusion for the yeast two-hybrid assay, P32829 1-692 (enzyme)
chain: MDYPDPDTIRILITTDNHVGYNENDPITGDDSWKTFHEVMMLAKNNNVDMVVQSGDLFHVNKPSKKSLYQVLKTLRLCCMGDKPCELELLSDPSQVFHYDEFTNVNYEDPNFNISIPVFGISGNHDDASGDSLLCPMDILHATGLINHFGKVIESDKIKVVPLLFQKGSTKLALYGLAAVRDERLFRTFKDGGVTFEVPTMREGEWFNLMCVHQNHTGHTNTAFLPEQFLPDFLDMVIWGHEHECIPNLVHNPIKNFDVLQPGSSVATSLCEAEAQPKYVFILDIKYGEAPKMTPIPLETIRTFKMKSISLQDVPHLRPHDKDATSKYLIEQVEEMIRDANEETKQKLADDGEGDMVAELPKPLIRLRVDYSAPSNTQSPIDYQVENPRRFSNRFVGRVANGNNVVQFYKKRSPVTRSKKSGINGTSISDRDVEKLFSESGGELEVQTLVNDLLNKMQLSLLPEVGLNEAVKKFVDKDEKTALKEFISHEISNEVGILSTNEEFLRTDDAEEMKALIKQVKRANSVRPTPPKENDETNFAFNGNGLDSFRSSNREVRTGSPDITQSHVDNESRITHISQAESSKPTSKPKRVRTATKKKIPAFSDSTVISDAENELGDNNDAQDDVDIDENDIIMVSTDEEDASYGLLNGRKTKTKTRPAASTKTASRRGKGRASRTPKTDILGSLLAKKRK
Consider B1, for which the binding result in experiment [1] is recorded as “binds”.

B2: S. cerevisiae Mre11 with a C-terminal 1xFLAG tag (Mre11 of the purified MR^EQ complex), P32829 1-692 (enzyme)
chain: MDYPDPDTIRILITTDNHVGYNENDPITGDDSWKTFHEVMMLAKNNNVDMVVQSGDLFHVNKPSKKSLYQVLKTLRLCCMGDKPCELELLSDPSQVFHYDEFTNVNYEDPNFNISIPVFGISGNHDDASGDSLLCPMDILHATGLINHFGKVIESDKIKVVPLLFQKGSTKLALYGLAAVRDERLFRTFKDGGVTFEVPTMREGEWFNLMCVHQNHTGHTNTAFLPEQFLPDFLDMVIWGHEHECIPNLVHNPIKNFDVLQPGSSVATSLCEAEAQPKYVFILDIKYGEAPKMTPIPLETIRTFKMKSISLQDVPHLRPHDKDATSKYLIEQVEEMIRDANEETKQKLADDGEGDMVAELPKPLIRLRVDYSAPSNTQSPIDYQVENPRRFSNRFVGRVANGNNVVQFYKKRSPVTRSKKSGINGTSISDRDVEKLFSESGGELEVQTLVNDLLNKMQLSLLPEVGLNEAVKKFVDKDEKTALKEFISHEISNEVGILSTNEEFLRTDDAEEMKALIKQVKRANSVRPTPPKENDETNFAFNGNGLDSFRSSNREVRTGSPDITQSHVDNESRITHISQAESSKPTSKPKRVRTATKKKIPAFSDSTVISDAENELGDNNDAQDDVDIDENDIIMVSTDEEDASYGLLNGRKTKTKTRPAASTKTASRRGKGRASRTPKTDILGSLLAKKRK
Consider B2, for which the binding entry in experiment [2] is recorded as “binds”.

Values taken from paper PMC11661359, “Structure guided functional analysis of the S. cerevisiae Mre11 complex” (Research Square, 2024).
